Data: PubChem BioAssay AID686979 (National Center for Advancing Translational Sciences (NCATS), 2013)
“And” between values parts separate entries of the source, which are not always exact repeats. Identical values can stand only once. Hit rate of the full screen: of about 420,000 compounds, about 50,000 (12%) were called active. The shares of active, inactive and inconclusive entries below differ from those in the screen. Calls follow the shape of the dose curve; as a rule, active = well fitted inhibition curve with a large enough effect; inconclusive = small, poorly fitted or top-dose-only effect; inactive = flat fitted curve, though single readings scatter. No potency is given beside an inconclusive call; the fits are too rough. Some structures have more than one record in an assay (separate samples or runs), and their calls can disagree.

experiment: qHTS for Inhibitors of human tyrosyl-DNA phosphodiesterase 1 (TDP1): qHTS in cells in presence of CPT; conditions: chicken DT40 Tdp1-/-;hTDP1 cells + 20 nM CPT, ATP luminescence, 48 h; activity change, negative = growth inhibition: at 46.2 µM (top of the series) unless noted; also: nearly all actives have a fitted effect of over 55% in size
Method in brief: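 Chicken DT40 Tdp1-/- cells stably complemented with human TDP1 were seeded at 400 cells/well in medium containing 20 nM camptothecin, exposed to pin-transferred compounds, and grown at 37 °C for at least 48 hr. Viability was read as ATP luminescence.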
% is scaled to controls: 0 for no effect and ±100 for the full control effect; potency is read from the fitted curve at half-maximal effect; tags tell the direction and shape of the fitted curve.

| Compound | activity change, negative = growth inhibition | Potency |
| --- | --- | --- |
| COc1ccc(C(=O)N/C(=C\c2ccco2)C(=O)NCc2cccnc2)cc1 | inactive: -8.41% | – |
| COc1ccc(-c2cc(OC(=O)c3cccc(Cl)c3)c3c(C)oc(C)c3c(=O)c2)cc1 | – | active: 25.9 µM |
| Cc1cc(C)cc(NC(=O)N2CCN(S(C)(=O)=O)CC2)c1 | inactive: 0.0225% | – |
| Cc1c(O)ccc(/C=N/Nc2ncccc2[N+](=O)[O-])c1O | – | inconclusive [inhibitor, single point] |
| COc1ccccc1C(=O)Nc1ccc2c(c1)OCCO2 | – | inconclusive [inhibitor, single point] |
| Cc1nsc(Nc2ccc([N+](=O)[O-])cc2)c1C#N | – | active: 2.59 µM |
| Cc1cccc(NC(=O)c2ccc(S(=O)(=O)N3CCCCC3)cc2)c1 | inactive: -14.2% | – |
| c1ccc(-n2nnnc2NCCCN2CCOCC2)cc1 | inactive: -2.04% | – |
| O=C(NNC(=S)NCc1ccco1)c1ccccc1Br | – | inconclusive [inhibitor, single point] |
| CNC(=O)c1ccsc1NC(=O)CS(=O)(=O)c1ccc(Cl)cc1 | – | inconclusive [inhibitor, partial curve, poor fit] |
| C=CCn1c(SCC(=O)Nc2ccc3c(c2)CCC3)nc2ccccc2c1=O | inactive: 7.76% | – |
| CCC(=O)N=c1ccn(C2=Nc3ccccc3NC2=C(C#N)C#N)cc1 | inactive: 9.06% | – |
| FC(F)(F)c1nc(SCc2ccccc2)n[nH]1 | inactive: -5.34% | – |
| Cc1ccc2nc(-c3cccnc3)c(Nc3ccc(C(C)C)cc3)n2c1 | inactive: -24.9% | – |
| C=Cc1ccc(S(=O)(=O)O)cc1 | inactive: 1.62% | – |
| Cc1cc(C)c(OCC(=O)OCC(=O)N2CCCc3ccccc32)c(C)c1 | inactive: -5.27% | – |
| CN(C)c1ccc(/C=C/C(=O)c2ccc(C(C)(C)C)cc2)cc1[N+](=O)[O-] | – | active: 23.1 µM |
| COc1ccc(C2CCCN2C(=S)Nc2ccc(C)cc2Cl)cc1OC (stereo not given) | – | inconclusive [inhibitor, single point] |
| CCN1CCC(NC(=O)Nc2ccc(F)cc2)CC1 | – | inconclusive [inhibitor, single point] |
| COc1ccc(C(=O)NCc2n[nH]c(=S)n2-c2ccccc2)cc1OC | inactive: 3.5% | – |
| O=C(/C=C/c1c(Cl)nc2ccccn12)N1CCN(c2ccc(F)cc2)CC1 | – | inconclusive [inhibitor, single point] |
| O=C(CSc1ccc(-c2ccccn2)nn1)c1ccc([N+](=O)[O-])cc1 | – | inconclusive [inhibitor, single point] |
| Cc1cc(C)c(S(=O)(=O)N2CCN(c3ccccc3)CC2)c(C)c1 | – | inconclusive [inhibitor, single point] |
| O=c1[nH]c2cc3c(cc2cc1CN(Cc1nnnn1CC1CCCO1)C1CCCCC1)OCO3 (stereo not given) | – | inconclusive [inhibitor, single point] |
| CCOC(=O)c1c(C)cc2c(CO)n[nH]c(=O)c2c1C | – | inconclusive [inhibitor, single point] |

| Compound | activity change, negative = growth inhibition | Potency |
| --- | --- | --- |
| CCOC(=O)c1c(C)oc2c1c(CN1CCN(CCO)CC1)c(O)c1ccccc12 | – | inconclusive [inhibitor, single point] |
| Cn1cccc1-c1nc2ccccc2n1Cc1ccccc1 | – | inconclusive [inhibitor, partial curve] |
| COc1ccc(-n2nc3ccc(N)cc3n2)cc1 | – | active: 16.4 µM |
| O=C(NCCc1ccc(Cl)cc1)C1COc2ccccc2C1 (stereo not given) | inactive: -11.4% | – |
| O=C(c1ccc(F)cc1)n1nc(-c2cccnc2)nc1NCc1ccc(F)cc1 | – | inconclusive [inhibitor, partial curve, poor fit] |
| Cc1ccccc1C(=O)Nc1ccccc1C(=O)NCc1ccccc1 | – | inconclusive [inhibitor, single point] |
| CC(C)(C)c1cc(O)c(C(C)(C)C)cc1O | – | inactive and active: 10.6 µM |
| O=C(C(=O)N1CCN(c2ccccc2F)CC1)c1cn(CC(=O)N2CCOCC2)c2ccccc12 | – | inconclusive [inhibitor, single point] |
| CCOC(=O)c1ccc(NC(=O)c2cn(-c3ccccc3)nc2-c2ccc(OC)c(OC)c2)cc1 | – | inconclusive [inhibitor, single point] |
| O=C(Nc1cccc(-c2nc3cccnc3s2)c1)c1cccc(Br)c1 | – | active: 8.2 µM |
| Cc1ccc(S(=O)(=O)N2CCN(S(C)(=O)=O)CC2)cc1 | – | inconclusive [inhibitor, full curve] |
| Cc1ccc(CCN2C(=O)CCC2(C)C(=O)NCc2cccnc2)cc1 (stereo not given) | inactive: -5.92% | – |
| COc1ccc(CC(=O)Nc2nc(-c3ccc(OC)c(OC)c3)cs2)cc1OC | – | inconclusive [inhibitor, single point] |
| CC(C)C[C@H]1CNC(=S)N1C[C@H]1CCCN1C[C@H](Cc1ccccc1)N1C[C@H](Cc2ccc(O)cc2)N(CCc2ccccc2)C1=S | – | active: 23.1 µM |
| COc1ccc(OC)c(NC(=O)CN(C)S(=O)(=O)c2ccc3nc(C)sc3c2)c1 | – | inconclusive [inhibitor, partial curve] |
| CCNC(=S)N(CCc1ccc(OC)c(OC)c1)Cc1cc2cc(OC)ccc2[nH]c1=O | inactive: -29.1% | – |
| CC1(C)Cc2c(sc3[nH]c(=S)n(Cc4ccccc4)c(=O)c23)CO1 | – | inconclusive [inhibitor, partial curve, poor fit] |
| COc1cc(CC(=O)Nc2ccc(Cl)c(C(F)(F)F)c2)cc(OC)c1OC | – | inconclusive [inhibitor, partial curve] |
| CC1=C(C(=O)OC(C)C)C(c2ccccc2Cl)CC(=O)N1 (stereo not given) | – | active: 20.6 µM |
| COCCn1c(=N)c(S(=O)(=O)c2ccc(F)cc2)cc2c(=O)n3cccc(C)c3nc21 | – | inconclusive [inhibitor, partial curve] |
| CCCCc1ccc(/C=C(\C#N)C(N)=S)s1 | – | inconclusive [inhibitor, single point] |
| Cc1ccc(S(=O)(=O)c2nc(-c3cccs3)oc2SC(C)C)cc1 | – | inconclusive [inhibitor, single point] |
| c1ccc(-c2cn(-c3ccccc3)c3ncnc(NCCCN4CCOCC4)c23)cc1 | – | inconclusive [inhibitor, partial curve, poor fit] |
| Nc1nc(Nc2ccccc2Cl)cc(=O)[nH]1 | inactive: 16.8% | – |
| O=C(Nc1ccc(Oc2cccnc2)cc1)C1CCN(Cc2cc(Cl)ccc2O)CC1 | – | active: 8.2 µM |

| Compound | activity change, negative = growth inhibition | Potency |
| --- | --- | --- |
| COc1ccccc1-c1cccc([C@@H]2C[C@H]3[C@H](CON3C)CN2C(=O)CCc2ccccc2)c1 | – | active: 18.4 µM |
| Cc1ccc(C(=O)Nc2cccc(NC(=O)c3cccs3)c2)c(C)c1 | inactive: -66.9% | – |
| Nc1ccc(Nc2ccc([N+](=O)[O-])cc2[N+](=O)[O-])cc1 | – | inconclusive [inhibitor, single point] |
| COc1cc(NS(=O)(=O)c2ccc(C)cc2)c2ncccc2c1 | – | active: 0.82 µM |
| CCOC(=O)c1c(C)oc2nc(C)nc(NCc3cccc(Cl)c3)c12 | – | inconclusive [inhibitor, single point] |
| CCCCOc1cccc(NC(=O)c2cccc(C(=O)Nc3cccc(OCCCC)c3)c2)c1 | – | active: 18.4 µM |
| Cc1ccc2oc(-c3ccc(C)c(NC(=O)COc4ccc(Cl)cc4)c3)nc2c1 | inactive: -29% | – |
| Cc1nc(NC(=S)NC(=O)c2cncc(Br)c2)ccc1Br | – | inconclusive [inhibitor, single point] |
| O=c1cc(-c2ccccc2Cl)oc2c(Br)ccc(O)c12 | – | inconclusive [inhibitor, single point] |
| CCOC(=O)c1nc(Nc2ccc(C(=O)OC)cc2)c2ccccc2n1 | – | active: 7.31 µM and active: 16.4 µM |
| Cn1c(N)c(C(=O)COC(=O)CC2CC3CCC2C3)c(=O)n(C)c1=O (stereo not given) | inactive: -14% | – |
| Cc1cccc(NC(=O)c2cccc(Cn3cc(Br)c([N+](=O)[O-])n3)c2)c1C | – | inconclusive [inhibitor, single point] |
| CCOC(=O)C1=C(N)Oc2ccc(Br)cc2C1C(C#N)C(=O)OCC (stereo not given) | inactive: -4.89% | – |
| CN1CCN(c2nc(-c3ccc(C(C)(C)C)cc3)nc3ccccc23)CC1 | – | inconclusive [inhibitor, single point] |
| CC(C)C[C@H]1CN([C@@H](Cc2ccccc2)CN2CCC[C@@H]2CN2C(=O)C(=O)NC[C@@H]2Cc2ccc(O)cc2)C(=O)C(=O)N1CC1CCCCCC1 | – | inconclusive [inhibitor, single point] |
| COC(=O)c1ccc(NS(=O)(=O)c2cc(C)ccc2OC)cc1 | – | inconclusive [inhibitor, partial curve] |
| CN1CCN(C(=S)SCC(=O)Nc2nc(-c3ccccc3)c(-c3ccccc3)o2)CC1 | inactive: -5.17% | – |
| Cc1ccc2c(c1)N(CC(=O)c1cccc(Cl)c1)C(=O)C(C)O2 (stereo not given) | inactive: -17.7% | – |
| COc1ccccc1N1CCN(C2CCN(C(=O)c3cccc(F)c3)CC2)CC1 | inactive: -12.9% | – |
| COc1ccc(N(C)C(=O)Cc2c(C(=O)O)n(C)c3ccccc23)cc1 | inactive: -3.16% | – |
| CCc1ccc(-n2c(=O)c3cccnc3n2CC(=O)Nc2cc(OC)ccc2OC)cc1 | – | inconclusive [inhibitor, single point] |
| CCOC(=O)c1nnc(-c2ccccc2)nc1Oc1ccccc1Cl | inactive: -26.7% | – |
| Cc1cccc(C)c1NC(=O)CN1CCC(Cc2ccccc2)CC1 | – | active: 20.6 µM |
| O=C(COC(=O)c1ccc(F)cc1)NC1CC1 | inactive: -0.194% | – |
| Cc1cc(-c2n[nH]c(=S)n2-c2ccc(F)cc2)nn1C | inactive: -2.22% | – |
